From PubChem BioAssay AID624417 (National Center for Advancing Translational Sciences (NCATS), 2012)
“And” between values parts separate entries of the source, which are not always exact repeats. Equal entries are not always repeated. About 6,400 (1.6%) of roughly 410,000 compounds were called active. Inconclusive results, whose numbers are uncertain, are shown with a selection of clear calls. Calls follow the shape of the dose curve; as a rule, active = well fitted inhibition curve with a large enough effect; inconclusive = small, poorly fitted or top-dose-only effect; inactive = no such curve, though single readings can be large or run the other way. Potencies beside an inconclusive call are fits to weak or partial responses and may not hold up.

Target: Glucagon-like peptide 1 receptor (Homo sapiens) (UniProt P43220)
Sequence of UniProt P43220 (P43220 whole entry, looked up): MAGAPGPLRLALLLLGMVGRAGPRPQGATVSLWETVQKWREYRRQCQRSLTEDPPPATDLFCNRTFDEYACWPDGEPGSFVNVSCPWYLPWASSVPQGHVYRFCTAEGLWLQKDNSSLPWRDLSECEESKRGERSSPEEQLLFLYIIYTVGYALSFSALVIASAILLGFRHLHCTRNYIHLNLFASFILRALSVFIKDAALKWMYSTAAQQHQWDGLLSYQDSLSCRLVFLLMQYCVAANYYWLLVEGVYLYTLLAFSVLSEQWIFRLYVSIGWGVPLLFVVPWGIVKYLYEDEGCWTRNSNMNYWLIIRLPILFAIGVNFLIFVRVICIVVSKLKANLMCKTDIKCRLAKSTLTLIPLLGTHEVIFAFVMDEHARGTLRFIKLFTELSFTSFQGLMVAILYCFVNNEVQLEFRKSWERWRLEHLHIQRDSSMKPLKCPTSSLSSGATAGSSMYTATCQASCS
Test: qHTS of GLP-1 Receptor Inverse Agonists (Inhibition Mode); also: nearly all actives have a fitted effect of over 55% in size
Conditions: HEK293 GLP-1R CRE-luciferase, luminescence, 24 h, GLP-1R form is constitutively active; activity change, negative = inhibition: at 38.3 µM (top of the series) unless noted
Procedure, shortened: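 Assay principle: reduced luminescence from a cAMP-responsive reporter in HEK293 cells co-expressing a constitutively active GLP-1R. Conditions: 24 hr compound incubation, 37 deg C, 5% CO2.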
% is scaled to controls: 0 for no effect and ±100 for the full control effect; potency is read from the fitted curve at half-maximal effect; tags tell the direction and shape of the fitted curve.

Potency, inactive:
CC(C)CC1Nc2ncnc(N3CCOCC3)c2N(Cc2ccc(Cl)cc2)C1=O (configuration not stated)

Potency, inconclusive:
COc1cccc(/C=C/c2nc3ccccc3c(=O)n2-c2ccc(C)c(C)c2)c1OC 14.1 µM [inhibitor, single point]
CSCCC(NC(=O)c1ccccc1)C(=O)NCCCSc1ccccc1 (configuration not stated) 28.2 µM [inhibitor, single point]
c1ccc(-c2nnc(SCC3CCCO3)nc2-c2ccccc2)cc1 (configuration not stated) 14.1 µM [inhibitor, single point]
CCOc1ccccc1C(=O)N1CCC(C(=O)c2ccc(F)cc2)CC1 3.98 µM [inhibitor, full curve]
COc1ccc(N2CCN(C(c3cccc(OC)c3OC)c3nnnn3C3CCCC3)CC2)cc1 (configuration not stated) 11.2 µM [inhibitor, partial curve, poor fit]
O=C(N/N=C/c1ccc(O)cc1)c1cc(C2CC2)[nH]n1 8.91 µM [inhibitor, single point]
CCCCn1c(NS(=O)(=O)c2ccccc2)c(S(=O)(=O)c2ccc(C)cc2)c2nc3ccccc3nc21 7.94 µM [inhibitor, partial curve, poor fit]
CCC(C(=O)Nc1ccc(F)cc1F)n1nc(-c2ccccc2)c2c(c1=O)CCCC2 (configuration not stated) 14.1 µM [inhibitor, partial curve, poor fit]
O=C(NC1CCCC1)c1cc(-c2ccccc2Cl)on1 11.2 µM [inhibitor, single point]
Cc1nc2sc(C(c3ccco3)N3CCN(c4cccc(Cl)c4)CC3)c(O)n2n1 (configuration not stated) 0.501 µM [inhibitor, full curve, poor fit]
Cc1cc(C)cc(N(CC(=O)Nc2ccc(C)cc2Cl)S(=O)(=O)c2c(C)[nH]c(=O)[nH]c2=O)c1 10 µM [inhibitor, partial curve, poor fit] and 28.2 µM [inhibitor, single point]
CC(OC(=O)Cc1c[nH]c2ccccc12)C(=O)c1ccccc1 (configuration not stated) 10 µM [inhibitor, single point]
CC(CCc1ccccc1)NC(=O)COC(=O)c1ccc(F)cc1 (configuration not stated) 7.94 µM [inhibitor, partial curve, poor fit]
CCOc1ccc(-c2c(C)sc3nc[nH]c(=O)c23)cc1 28.2 µM [inhibitor, single point]
CC(C)N1CCN(Cc2ccc(C#CC(C)(C)O)s2)CC1CCO (configuration not stated) 8.91 µM [inhibitor, partial curve, poor fit]
O=C(COc1ccc2ccccc2c1Br)NNC(=O)Nc1ccccc1 2.82 µM [inhibitor, partial curve, poor fit]
C/C(=C\c1ccccc1)C(=O)Nc1ccc(Cl)cn1 10 µM [inhibitor, partial curve]
CCOc1ccc2c(C)nc(NC3=NC(C)(C)C=C(C)N3)nc2c1 11.2 µM [inhibitor, partial curve, poor fit]
Cc1ccc2nc3c(cc2c1)c(NC(=O)C(C)(C)C)nn3CC(C)C 3.16 µM [inhibitor, full curve, poor fit]
Cc1cccc(C)c1NC(=O)c1nc(SC(C)C)ncc1Cl 2 µM [inhibitor, full curve, poor fit]
Cc1onc(-c2ccccc2)c1C(=O)N1CCOC12CCN(c1cccc(F)n1)CC2 7.94 µM [inhibitor, partial curve]
CCN(CC)c1ccc(/C=N/Nc2nc3ccccc3[nH]2)c(O)c1 5.62 µM [inhibitor, full curve, poor fit]
CCN(CC)C(=O)CN(Cc1ccccc1)S(=O)(=O)c1ccc(F)cc1 10 µM [inhibitor, single point]
O=C(c1cc(-c2cccc(Cl)c2)on1)N1CCCCCC1 28.2 µM [inhibitor, single point]
COC(=O)c1sccc1NC(=O)CC1C(=O)NCCN1C(=O)Nc1cc(Cl)ccc1OC (configuration not stated) 31.6 µM [inhibitor, single point]
Cc1ccc2[nH]c3c(=O)n(CC(=O)NCCCN4CCN(c5ccc(F)cc5)CC4)ncc3c2c1 3.16 µM [inhibitor, full curve, poor fit]
S=C1Nc2ccccc2CS1 28.2 µM [inhibitor, single point]
O=C1Nc2ccc(Br)cc2/C1=C/C(=O)c1ccccc1 10 µM [inhibitor, single point]
CC1CCCCC1NC(=O)CCNS(=O)(=O)c1cc(Br)cnc1N (configuration not stated) 28.2 µM [inhibitor, single point]
COc1ccc(Cc2c(C3CCCCC3)nc3ccc(Cl)cn23)c(C)c1 7.94 µM [inhibitor, partial curve, poor fit]

Potency, active:
Cc1ccc(-c2noc(CCC(=O)Nc3ccccc3N3CCN(C)CC3)n2)cc1 11.2 µM
CCCCCCOc1ccc(NC(=O)CC2C(=O)N(CC)C(=S)N2Cc2ccco2)cc1 (configuration not stated) 7.08 µM

Activity change, negative = inhibition, inactive:
Cc1ccc(-c2nnn(C/C(N)=N/O)n2)cc1 19.4%
CCCN1CCC(=O)N(CCSc2ccccc2)CC1 2.8%
c1ccc2c(c1)oc1c(-c3ccc4nccn4c3)cccc12 -15.7%
CC(=O)c1cccc(NS(=O)(=O)c2c(C(=O)N3CCOCC3)c(C)n(C)c2C)c1 2.61%
Cc1ccccc1Nc1c(-c2ccc(O)cc2)nc2c(C)cccn12 -25.6%
CC1CCN(C(=O)CCc2nnc(-c3ccccc3)o2)CC1 25.3%
Cn1cc(Cl)c(C(=O)N/N=C/c2ccc3c4c(cccc24)CC3)n1 -29.2%
COCCCNC(=O)C1CCN(C(=O)c2ccc(-n3ccc4ccccc43)s2)CC1 17.6%
CC1CCCN(CCC(=O)c2ccccc2)C1 (configuration not stated) -8.46%
